Measured values published in PMC4336329 (PLoS ONE, 2015).
The campaign covered roughly 310,000 compounds. About 2,200 (0.71%) showed an effect of 50% or more. Effects have a minus sign here. The list shows a part of the results.

What follows are compounds tested against human ether-à-go-go-related gene (hERG) potassium channel (human, UniProt Q12809) (assay: primary screen, population patch clamp on CHO cells stably expressing hERG).
Chain of human ether-à-go-go-related gene (hERG) potassium channel (Q12809 whole entry, looked up): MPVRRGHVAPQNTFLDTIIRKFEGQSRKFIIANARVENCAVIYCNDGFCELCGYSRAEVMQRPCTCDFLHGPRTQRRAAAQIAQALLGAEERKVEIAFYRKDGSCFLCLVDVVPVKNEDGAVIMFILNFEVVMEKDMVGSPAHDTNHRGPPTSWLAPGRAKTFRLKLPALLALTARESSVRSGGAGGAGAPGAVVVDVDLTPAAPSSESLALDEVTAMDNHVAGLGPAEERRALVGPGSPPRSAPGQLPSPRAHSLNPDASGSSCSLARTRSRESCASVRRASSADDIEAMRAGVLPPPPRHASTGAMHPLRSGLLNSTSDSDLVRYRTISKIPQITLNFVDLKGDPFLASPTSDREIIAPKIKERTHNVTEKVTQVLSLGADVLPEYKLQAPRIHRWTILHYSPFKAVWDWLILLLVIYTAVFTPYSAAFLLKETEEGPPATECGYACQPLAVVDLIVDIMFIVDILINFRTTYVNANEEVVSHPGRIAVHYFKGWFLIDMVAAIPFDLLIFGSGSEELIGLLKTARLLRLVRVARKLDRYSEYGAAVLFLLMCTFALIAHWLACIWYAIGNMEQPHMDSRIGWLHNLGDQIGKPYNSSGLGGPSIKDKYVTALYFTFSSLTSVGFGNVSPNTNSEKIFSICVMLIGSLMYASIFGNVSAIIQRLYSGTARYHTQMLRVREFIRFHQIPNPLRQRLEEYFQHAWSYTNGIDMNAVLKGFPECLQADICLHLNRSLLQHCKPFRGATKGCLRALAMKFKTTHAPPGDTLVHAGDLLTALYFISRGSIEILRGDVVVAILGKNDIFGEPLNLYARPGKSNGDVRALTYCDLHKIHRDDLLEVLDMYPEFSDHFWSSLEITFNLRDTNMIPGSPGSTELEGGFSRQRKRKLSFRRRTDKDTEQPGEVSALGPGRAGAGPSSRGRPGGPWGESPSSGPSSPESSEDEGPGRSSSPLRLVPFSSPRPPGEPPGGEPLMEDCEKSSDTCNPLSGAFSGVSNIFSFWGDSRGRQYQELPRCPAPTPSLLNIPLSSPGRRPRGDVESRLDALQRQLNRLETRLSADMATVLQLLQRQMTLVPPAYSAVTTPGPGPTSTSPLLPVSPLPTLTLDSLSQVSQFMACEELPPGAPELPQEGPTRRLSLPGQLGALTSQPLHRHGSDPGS

SMILES	hERG current change (%, negative = inhibition) at 1uM [%]
Cc1ccccc1CC(=O)NCCN1CCCCC1	11.7
Cc1ccccc1C1C(=O)c2ccccc2C1=O	17.2
Cc1ccc(C(=O)NCCNC(=O)c2cnccn2)cc1	11.5
Cc1cnn(C(=O)c2cc(-c3ccccn3)nc3ccc(Cl)cc23)c1	12.9
Cc1ccc(Sc2ccc(NC(=O)CCl)cc2)cc1C	4.79
C=CCn1c(Cc2nc3ccc(Cl)cc3[nH]2)n[nH]c1=S	13.4
Cc1ccc(NC(=O)COC(=O)c2ccc(Cl)nc2)cc1S(=O)(=O)N1CCCCC1	13.9
CC(C)(C)c1ccc(S(=O)(=O)NCC2CCCO2)cc1 (stereo not shown)	8.44
CC(=O)N1CCCSC1=Nc1ccccc1	10.6
COc1ccc(Cl)cc1NC(=O)CSc1nnc(-c2ccncc2)n1CC1CCCO1 (stereo not shown)	-6.14
Cc1ccc2c(c1)C(c1ccccc1)N(C(=O)c1cc3ccccc3oc1=O)CC(=O)N2 (stereo not shown)	1.48
O=C(CN(C1CCCCC1)S(=O)(=O)c1ccccc1)NCc1cccnc1	5.52
COC(=O)c1sc2ccccc2c1-n1cccc1C(=O)C(=O)Nc1ccc(F)cc1	-3.76
COc1ccc(Nc2nc(Cl)nc(NCc3ccco3)n2)cc1	14.4
CC(NC(=O)COC(=O)CCc1nc2ccccc2c(=O)[nH]1)c1ccccc1 (stereo not shown)	-20.2
Cc1ccc(-c2cnn3c(N4CCOCC4)cc(C)nc23)cc1	4.77
CCCCC(=O)OCC(=O)Nc1ccc(SC(F)F)cc1	8.07
CCOc1ccc2ncc(S(=O)(=O)c3ccc(C)cc3)c(N3CCC4(CC3)OCCO4)c2c1	1.29
Cl.NCCn1c(-c2ccccc2)cc(C(=O)O)c1-c1ccccc1F	7.29
O=C(NCN1CCc2ccccc2C1)c1cnccn1	8.04
CCOc1ccc(C(=O)Nc2ccc(-c3nc4ccccc4[nH]3)cc2)cc1[N+](=O)[O-]	11.2
COC(=O)c1cc2occc2n1Cc1nc(-c2ccccc2C)oc1C	12.1

SMILES	hERG current change (%, negative = inhibition) at 1uM [%]
COC(=O)c1ccc(NC(=S)NC2c3ccccc3CC2O)cc1 (stereo not shown)	14.3
CCOC(=O)c1c[nH]c2c(C)ccc(Cl)c2c1=O	11.5
CC1CCN(S(=O)(=O)c2ccc(C(=O)Nc3nnc(-c4ccccn4)o3)cc2)CC1	14.2
CC1(C)CC(=O)C(C=NCCN2CCN(CC(=O)Nc3ccc(F)cc3)CC2)=C(O)C1	13.6
O=C1CC(c2ccc(F)cc2)CC(O)=C1C=NCCN1CCN(C(=O)Nc2ccccc2)CC1 (stereo not shown)	-17.3
O=C(Cn1nnc2ccccc21)N/N=C\c1cccs1	12.9
c1ccc(CNc2nc3ccccc3n3cnnc23)nc1	6.63
O=C1CN(C(=O)COc2ccc(Br)cc2F)c2ccccc2N1	10.9
CCOC(=O)c1[nH]c(C)c(C)c1C	15.3
CN1C(=O)c2ccc(NC(=O)c3c(F)c(F)c(F)c(F)c3F)cc2C1=O	7.61
COCCN1C=C2C(=O)C(C)(OC(=O)C3CCCC3)C(=O)C=C2C=C1c1ccsc1 (stereo not shown)	11.6
O=C(O)CC/C(=C\c1cc([N+](=O)[O-])ccc1Cl)c1nc2ccccc2s1	6.83
CC1Cc2ccccc2N1C(=O)CSc1ncc(-c2ccc(F)cc2)n1C (stereo not shown)	5.9
COc1ccc(Br)cc1CN1CCN(CCO)CC1	2.94
Cn1c(=O)cc(SCC(=O)N2CCC3(CC2)OCCO3)c2ccccc21	12.8
Cc1ccc2c(c1)=C/C(=C\c1c(O)[nH]c(=O)[nH]c1=O)C(=O)N=2	-0.505
CCn1c(/C=C/N(C(C)=O)c2ccccc2)[n+](CC)c2ccc(Cl)cc21.[I-]	5.77
Cc1c(-n2c(CN3C(=O)c4ccccc4C3=O)nc3ccccc3c2=O)c(=O)n(-c2ccccc2)n1C	11
Cc1ccc(OCC(=O)NCc2cccnc2)cc1	9.97
Cc1cc(C)cc(OCC(=O)N/N=C/c2ccncc2)c1	12.5
CCCCn1c(-c2csc3c2CCC(C)C3)n[nH]c1=S (stereo not shown)	0.422
Cc1ccccc1Cn1ccc(NC(=O)c2nn3cccnc3c2Cl)n1	11.6

SMILES	hERG current change (%, negative = inhibition) at 1uM [%]
COc1ccccc1NC(=O)CCN1CCCCCC1.Cl	3.7
CCOC(=O)Nc1ccc(S(=O)(=O)Nc2onc(C)c2C)cc1	1.85
CCCCSC(=S)NC1CCS(=O)(=O)C1 (stereo not shown)	3.86
CC(C)Oc1cccc(-c2cc(C(=O)N3CCN(S(C)(=O)=O)CC3)c3ccccc3n2)c1	6.9
COc1ccccc1C(=O)CSc1n[nH]c(N)n1	17.7
COc1cc(C(CC(=O)N2CCN(c3ccccc3)CC2)c2c(OC)cc(OC)c3ccc(=O)oc23)cc(OC)c1OC (stereo not shown)	-5.08
CCn1c(-c2csc3c2CCCC3)n[nH]c1=S	8.88
O=C1CSC(c2ccccn2)N1c1ccccc1F (stereo not shown)	15.7
CCCS(=O)(=O)c1ccc(COC(=O)c2ccc(NC(C)=O)cc2)cc1	16.9
COc1ccc(C(c2nnnn2CC2CCCO2)N2CCC(C(N)=O)CC2)cc1 (stereo not shown)	11.6
CSCCC(NC(=O)c1ccccc1Cl)C(=O)N1CCCCCCC1 (stereo not shown)	8.61
COn1c(=O)c(-c2ccc(F)cc2)[n+]([O-])c2ccccc21	17.1
Cn1c(-c2ccccc2)c(/C=N/NC(=O)c2cccnc2)c2ccccc21	15.5
CCCN(CC(=O)Nc1ccccc1C)C(=O)/C=C/c1ccc(S(=O)(=O)N2CCCCCC2)cc1	5.68
Cc1cc(C)c(S(=O)(=O)N2CCCCC2CCNC(=O)C(=O)NCc2cccnc2)c(C)c1 (stereo not shown)	-0.0941
CCOC(=O)c1ccccc1NC(=O)CC1SC(=NC)N(C)C1=O (stereo not shown)	12.6
Cc1ccc(-c2ccc(CCC(=O)O)o2)cc1	11.9
Cc1cc(-c2n[nH]c(=S)n2/N=C/c2c[nH]c3ccccc23)n[nH]1	2.02
COc1ccc(-c2nc(CN3CCN(C(=O)c4ccco4)CC3)c(C)o2)cc1OC	8.24
Cc1onc(-c2c(Cl)cccc2Cl)c1C(O)c1ccc(F)cc1 (stereo not shown)	1.38
CSc1cnc2c(N)nc(N(C)C)nc2n1	13.5
CCOC(=O)[C@H]1[C@H]2COc3cc(OC)ccc3[C@@H]2N2C(=O)CN(Cc3ccc(C)cc3)C(=O)[C@@]12C	7.54

SMILES	hERG current change (%, negative = inhibition) at 1uM [%]
CCOc1ccc(CCNC(=O)C2CCN(S(=O)(=O)N3CC(C)CC(C)C3)CC2)cc1OCC (stereo not shown)	14.9
CN(CC1COc2ccccc2O1)c1nc(-c2cccnc2)nc2ccccc12 (stereo not shown)	3.34
COc1ccc(CNC(=O)c2cc3c(C)nc4ccccc4c3o2)c(OC)c1	-1.16
Cc1cc(NC(=O)CCC(=O)N(CC(=O)NCC2CCCO2)c2ccc3c(c2)OCCO3)no1 (stereo not shown)	6.95
CCCC[C@@H]1CNC(=O)C(=O)N1CCc1cccc2ccccc12	11.6
CC(C)c1ccc(-n2c(O)c(/C=N/NC(=O)c3ccncc3)c(=O)[nH]c2=O)cc1	12.1
CC1CC(C)CN(C(=O)CCS(=O)(=O)c2ccc3c(c2)NC(=O)CS3)C1 (stereo not shown)	12.7
O=C(NCCNc1ccc([N+](=O)[O-])cc1Cl)c1ccccc1F	10.4
CC(C)(Oc1ccc(Cl)cc1)C(=O)N(Cc1ccccc1)c1ccccn1	0.163
COc1ccc(-n2nc(C(=O)NCC(=O)NCCCN3CCOCC3)c3ccccc3c2=O)cc1	12.3
Cc1ccccc1C1c2[nH]c3ccccc3c2C[C@H]2C(=O)N(c3ccccc3C(=O)NCCCN3CCOCC3)C(=O)N12 (stereo partly shown)	4.68
CCOC(=O)c1cnc2c(cnn2C)c1Cl	10.9
Cc1ccc(S(=O)(=O)N2c3ccccc3OCC2C(C)(C)C)cc1 (stereo not shown)	7.9
COc1ccc(OC(=O)C(C)N2C(=O)c3ccccc3C2=O)cc1 (stereo not shown)	7.76
CCOc1ccc(N2C(=O)CC(SCc3nc4ccccc4[nH]3)C2=O)cc1 (stereo not shown)	-2.38
CC(C)(C)C1CCc2onc(C(=O)NCc3ccc(F)cc3)c2C1 (stereo not shown)	3.6
CC(=O)Nc1cccc2c1OCCO2	6.16
Cc1ccc(-c2cc(C(=O)NCCCn3ccnc3)c3ccccc3n2)s1	-41.4
COc1ccc(/C=C2/C(=O)NC(=O)N(c3ccccc3)C2=O)cc1CN1C(=O)c2ccccc2C1=O	14.7
OC(c1nc2ccc(F)cc2[nH]1)C(O)c1nc2ccc(F)cc2[nH]1 (stereo not shown)	16.3
O=C(Nc1nnc(-c2ccc(F)cc2)s1)c1c(F)cccc1Cl	14.9
NC(=O)c1ccsc1NC(=O)CS(=O)(=O)c1ccc(Cl)cc1	-10.8
